The record followed here is paper PMC12820563.

Some of the results follow. The list includes weakly bound sequences.

For this assay, the target named is T1, MBP-FoxP3dN (UniProt Q99JB6).
T1 sequence: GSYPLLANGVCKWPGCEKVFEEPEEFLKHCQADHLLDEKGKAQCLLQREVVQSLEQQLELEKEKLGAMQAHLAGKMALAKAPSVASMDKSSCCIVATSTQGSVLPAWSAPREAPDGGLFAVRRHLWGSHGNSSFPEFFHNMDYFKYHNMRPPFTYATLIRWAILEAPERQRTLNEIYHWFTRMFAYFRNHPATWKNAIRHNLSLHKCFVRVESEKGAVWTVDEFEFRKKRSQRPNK
Put plainly: PD-seq (MBP pull-down with sequencing). As to conditions: 20 mM Tris-HCl pH 7.5, 100 mM NaCl, 1.5 mM MgCl2, 0.4 uM protein, 0.1 uM dsDNA library, 30 min, room temperature, amylose pull-down; high values mean tight binding; double strand, one strand shown.
For “GATGATTGTTCTCCCAGCTGATGAATTGAGTAGCTCGAGTAAACAAATTTTCCTAATCTTTCTGTTCAAGCGCCATCTAC”, the binding signal (RPM ratio (pull-down/input)) came out at 0.581.

With “GATGATTGTTCTCCCAGCTGATGAATTTTACTGGTCGAGTAAACAAATTTTCCTAATCTTTCTGTTCAAGCGCCATCTAC”, the binding signal (RPM ratio (pull-down/input)) is 0.331.

As for “GATGATTGTTCTCCCAGCTGATGAATTGTCTTAGTCGAGTAAACAAATTTTCCTAATCTTTCTGTTCAAGCGCCATCTAC”, the binding signal (RPM ratio (pull-down/input)) was 0.483.

For the sequence “GATGATTGTTCTCCCAGCTGATGAATTTGAACGGTCGAGTAAACAAATTTTCCTAATCTTTCTGTTCAAGCGCCATCTAC”, the binding signal (RPM ratio (pull-down/input)) amounted to 0.252.

For “GATGATTGTTCTCCCAGCTGATGAATTATTTACTTCGAGTAAACAAATTTTCCTAATCTTTCTGTTCAAGCGCCATCTAC”, the binding signal (RPM ratio (pull-down/input)) was 3.12.

On to “GATGATTGTTCTCCCAGCTGATGAATTGAATGGCTCGAGTAAACAAATTTTCCTAATCTTTCTGTTCAAGCGCCATCTAC”, for which the binding signal (RPM ratio (pull-down/input)) stood at 0.431.

Regarding “GATGATTGTTCTCCCAGCTGATGAATTCTTAATTTCGAGTAAACAAATTTTCCTAATCTTTCTGTTCAAGCGCCATCTAC”, the binding signal (RPM ratio (pull-down/input)) came to 0.3.

For the sequence “GATGATTGTTCTCCCAGCTGATGAATTAGACTGATCGAGTAAACAAATTTTCCTAATCTTTCTGTTCAAGCGCCATCTAC”, the binding signal (RPM ratio (pull-down/input)) worked out at 0.303.

“GATGATTGTTCTCCCAGCTGATGAATTTTCAGCCTCGAGTAAACAAATTTTCCTAATCTTTCTGTTCAAGCGCCATCTAC”: the binding signal (RPM ratio (pull-down/input)) was 0.34.

Turning to “GATGATTGTTCTCCCAGCTGATGAATTTAATTTTTCGAGTAAACAAATTTTCCTAATCTTTCTGTTCAAGCGCCATCTAC”, the binding signal (RPM ratio (pull-down/input)) came out at 1.47.

Regarding “GATGATTGTTCTCCCAGCTGATGAATTCGGCTCTTCGAGTAAACAAATTTTCCTAATCTTTCTGTTCAAGCGCCATCTAC”, the binding signal (RPM ratio (pull-down/input)) is 0.488.

Regarding “GATGATTGTTCTCCCAGCTGATGAATTGGGTATATCGAGTAAACAAATTTTCCTAATCTTTCTGTTCAAGCGCCATCTAC”, the binding signal (RPM ratio (pull-down/input)) was determined as 1.17.

As for “GATGATTGTTCTCCCAGCTGATGAATTTATCAGCTCGAGTAAACAAATTTTCCTAATCTTTCTGTTCAAGCGCCATCTAC”, the binding signal (RPM ratio (pull-down/input)) is 0.714.

As to “GATGATTGTTCTCCCAGCTGATGAATTAGCGTTTTCGAGTAAACAAATTTTCCTAATCTTTCTGTTCAAGCGCCATCTAC”, the binding signal (RPM ratio (pull-down/input)) was found to be 1.5.

Regarding “GATGATTGTTCTCCCAGCTGATGAATTGGTAGCGTCGAGTAAACAAATTTTCCTAATCTTTCTGTTCAAGCGCCATCTAC”, the binding signal (RPM ratio (pull-down/input)) came out at 0.977.

Regarding “GATGATTGTTCTCCCAGCTGATGAATTGTAGTAGTCGAGTAAACAAATTTTCCTAATCTTTCTGTTCAAGCGCCATCTAC”, the binding signal (RPM ratio (pull-down/input)) worked out at 0.954.

With “GATGATTGTTCTCCCAGCTGATGAATTGTGTTGGTCGAGTAAACAAATTTTCCTAATCTTTCTGTTCAAGCGCCATCTAC”, the binding signal (RPM ratio (pull-down/input)) worked out at 6.68.

As for “GATGATTGTTCTCCCAGCTGATGAATTCTATGGGTCGAGTAAACAAATTTTCCTAATCTTTCTGTTCAAGCGCCATCTAC”, the binding signal (RPM ratio (pull-down/input)) was found to be 0.49.

Turning to “GATGATTGTTCTCCCAGCTGATGAATTCGTTAAGTCGAGTAAACAAATTTTCCTAATCTTTCTGTTCAAGCGCCATCTAC”, the binding signal (RPM ratio (pull-down/input)) was determined as 0.33.

As to “GATGATTGTTCTCCCAGCTGATGAATTGCGGTGATCGAGTAAACAAATTTTCCTAATCTTTCTGTTCAAGCGCCATCTAC”, the binding signal (RPM ratio (pull-down/input)) is 0.978.

In the case of “GATGATTGTTCTCCCAGCTGATGAATTTCGGGACTCGAGTAAACAAATTTTCCTAATCTTTCTGTTCAAGCGCCATCTAC”, the binding signal (RPM ratio (pull-down/input)) worked out at 0.358.

Regarding “GATGATTGTTCTCCCAGCTGATGAATTCCGGGACTCGAGTAAACAAATTTTCCTAATCTTTCTGTTCAAGCGCCATCTAC”, the binding signal (RPM ratio (pull-down/input)) was determined as 0.306.

Turning to “GATGATTGTTCTCCCAGCTGATGAATTCAATCCGTCGAGTAAACAAATTTTCCTAATCTTTCTGTTCAAGCGCCATCTAC”, the binding signal (RPM ratio (pull-down/input)) was determined as 0.332.

As for “GATGATTGTTCTCCCAGCTGATGAATTCCATCGTTCGAGTAAACAAATTTTCCTAATCTTTCTGTTCAAGCGCCATCTAC”, the binding signal (RPM ratio (pull-down/input)) came out at 0.602.

As to “GATGATTGTTCTCCCAGCTGATGAATTCGTACCATCGAGTAAACAAATTTTCCTAATCTTTCTGTTCAAGCGCCATCTAC”, the binding signal (RPM ratio (pull-down/input)) amounted to 0.621.

On to “GATGATTGTTCTCCCAGCTGATGAATTGCACCCTTCGAGTAAACAAATTTTCCTAATCTTTCTGTTCAAGCGCCATCTAC”, for which the binding signal (RPM ratio (pull-down/input)) came out at 0.919.

In the case of “GATGATTGTTCTCCCAGCTGATGAATTGCGCCGGTCGAGTAAACAAATTTTCCTAATCTTTCTGTTCAAGCGCCATCTAC”, the binding signal (RPM ratio (pull-down/input)) is 1.17.

As for “GATGATTGTTCTCCCAGCTGATGAATTTGGCTGATCGAGTAAACAAATTTTCCTAATCTTTCTGTTCAAGCGCCATCTAC”, the binding signal (RPM ratio (pull-down/input)) was found to be 0.615.

Turning to “GATGATTGTTCTCCCAGCTGATGAATTAATACCATCGAGTAAACAAATTTTCCTAATCTTTCTGTTCAAGCGCCATCTAC”, the binding signal (RPM ratio (pull-down/input)) came out at 0.568.

“GATGATTGTTCTCCCAGCTGATGAATTCTTGATTTCGAGTAAACAAATTTTCCTAATCTTTCTGTTCAAGCGCCATCTAC”: the binding signal (RPM ratio (pull-down/input)) is 0.467.

For “GATGATTGTTCTCCCAGCTGATGAATTCGTTTCATCGAGTAAACAAATTTTCCTAATCTTTCTGTTCAAGCGCCATCTAC”, the binding signal (RPM ratio (pull-down/input)) was 0.958.

Regarding “GATGATTGTTCTCCCAGCTGATGAATTGTCTGTTTCGAGTAAACAAATTTTCCTAATCTTTCTGTTCAAGCGCCATCTAC”, the binding signal (RPM ratio (pull-down/input)) stood at 0.639.
